This assay addresses Small ribosomal subunit protein bS1 (UniProt P0AG67). Nature of the assay: cross-link between two proteins; cross-linking mass spectrometry.

Sequence of Large ribosomal subunit protein uL1 (chain, as listed by the source): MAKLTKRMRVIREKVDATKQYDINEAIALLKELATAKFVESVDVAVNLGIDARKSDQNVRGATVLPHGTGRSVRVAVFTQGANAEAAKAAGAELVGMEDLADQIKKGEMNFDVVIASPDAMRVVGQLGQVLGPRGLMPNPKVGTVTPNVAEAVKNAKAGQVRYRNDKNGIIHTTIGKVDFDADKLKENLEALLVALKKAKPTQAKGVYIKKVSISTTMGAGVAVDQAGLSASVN

In the case of Large ribosomal subunit protein uL1, the “listed as a hit” value was “yes”.

The values are drawn from article PMC12615815.
